Consider 5 molecules from publication PMC7776573.

The chains behind the UniProt entries cited, without tags or fusion partners.
UniProt P53034: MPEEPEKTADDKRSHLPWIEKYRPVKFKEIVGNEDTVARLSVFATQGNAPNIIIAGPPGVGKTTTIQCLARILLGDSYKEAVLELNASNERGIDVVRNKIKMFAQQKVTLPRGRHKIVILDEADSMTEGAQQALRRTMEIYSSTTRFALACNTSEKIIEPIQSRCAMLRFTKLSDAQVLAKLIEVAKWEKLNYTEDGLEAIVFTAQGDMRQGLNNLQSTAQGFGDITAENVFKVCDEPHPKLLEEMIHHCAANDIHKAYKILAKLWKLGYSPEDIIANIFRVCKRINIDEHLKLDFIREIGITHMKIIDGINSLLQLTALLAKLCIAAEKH
UniProt P35820: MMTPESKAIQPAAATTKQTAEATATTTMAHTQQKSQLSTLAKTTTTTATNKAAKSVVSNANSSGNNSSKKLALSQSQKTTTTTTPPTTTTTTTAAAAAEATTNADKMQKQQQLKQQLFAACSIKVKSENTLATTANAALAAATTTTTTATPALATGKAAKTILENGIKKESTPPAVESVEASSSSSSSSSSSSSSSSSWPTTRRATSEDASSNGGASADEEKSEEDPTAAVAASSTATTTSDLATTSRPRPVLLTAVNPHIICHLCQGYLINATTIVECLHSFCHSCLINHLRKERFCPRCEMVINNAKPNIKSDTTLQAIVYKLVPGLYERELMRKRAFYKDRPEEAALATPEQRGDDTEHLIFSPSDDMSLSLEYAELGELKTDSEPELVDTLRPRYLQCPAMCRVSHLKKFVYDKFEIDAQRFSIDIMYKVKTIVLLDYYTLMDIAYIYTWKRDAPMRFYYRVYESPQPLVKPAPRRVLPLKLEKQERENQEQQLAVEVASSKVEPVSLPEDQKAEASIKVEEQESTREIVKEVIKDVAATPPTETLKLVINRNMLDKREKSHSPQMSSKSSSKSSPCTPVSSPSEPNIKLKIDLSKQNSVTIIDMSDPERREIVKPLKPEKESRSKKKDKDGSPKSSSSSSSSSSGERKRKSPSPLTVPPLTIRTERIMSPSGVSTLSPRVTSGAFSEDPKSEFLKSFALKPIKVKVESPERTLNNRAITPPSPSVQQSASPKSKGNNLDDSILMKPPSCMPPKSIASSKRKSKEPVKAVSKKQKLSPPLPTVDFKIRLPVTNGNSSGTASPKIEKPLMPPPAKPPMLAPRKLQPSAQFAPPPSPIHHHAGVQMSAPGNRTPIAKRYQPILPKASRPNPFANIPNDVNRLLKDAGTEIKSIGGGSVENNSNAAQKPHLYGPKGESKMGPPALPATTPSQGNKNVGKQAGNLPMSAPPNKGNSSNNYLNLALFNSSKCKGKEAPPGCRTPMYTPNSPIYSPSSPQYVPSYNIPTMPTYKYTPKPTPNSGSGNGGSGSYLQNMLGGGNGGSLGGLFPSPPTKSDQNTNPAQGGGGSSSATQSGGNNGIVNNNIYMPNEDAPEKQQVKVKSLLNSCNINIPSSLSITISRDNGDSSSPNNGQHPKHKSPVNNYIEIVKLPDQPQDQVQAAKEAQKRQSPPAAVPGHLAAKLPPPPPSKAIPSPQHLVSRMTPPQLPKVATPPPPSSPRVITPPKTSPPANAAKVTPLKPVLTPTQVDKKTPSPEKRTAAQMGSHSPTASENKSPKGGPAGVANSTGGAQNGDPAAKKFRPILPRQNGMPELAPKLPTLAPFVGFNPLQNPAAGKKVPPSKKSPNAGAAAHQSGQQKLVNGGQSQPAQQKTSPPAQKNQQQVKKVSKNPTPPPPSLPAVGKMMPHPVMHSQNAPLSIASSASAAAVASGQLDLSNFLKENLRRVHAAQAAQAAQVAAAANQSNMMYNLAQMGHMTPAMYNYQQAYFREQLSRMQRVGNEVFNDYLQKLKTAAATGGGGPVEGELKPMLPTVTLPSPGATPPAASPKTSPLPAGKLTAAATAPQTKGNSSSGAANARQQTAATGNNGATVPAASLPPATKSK

Assay [1] has as its target T1, GST-EVH1 (Falafel Flfl^1-168aa, containing the EVH1 domain) (Drosophila melanogaster) (UniProt Q9VFS5).
T1 sequence: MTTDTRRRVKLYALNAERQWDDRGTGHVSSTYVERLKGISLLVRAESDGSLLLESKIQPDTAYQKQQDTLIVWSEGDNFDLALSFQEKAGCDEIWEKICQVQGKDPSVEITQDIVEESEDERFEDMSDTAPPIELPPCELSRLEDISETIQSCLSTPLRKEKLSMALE
Briefly: pull-down; GST or GST-fused bait immobilised on glutathione sepharose 4B; 35S-methionine-labelled IVTT prey; 90 min at 4°C in WB1 (50 mM HEPES pH 7.5, 150 mM NaCl, 2 mM MgCl2, 1 mM EGTA, 1 mM DTT, 0.1% Triton X-100) with protease inhibitors and 0.5 mg/ml BSA; SDS-PAGE and autoradiography; only the target purified.

In assay [2] the target is T2, GST-Smk-1 (Falafel Flfl^169-361aa, containing the Smk-1 domain) (Drosophila melanogaster) (UniProt Q9VFS5).
T2 sequence: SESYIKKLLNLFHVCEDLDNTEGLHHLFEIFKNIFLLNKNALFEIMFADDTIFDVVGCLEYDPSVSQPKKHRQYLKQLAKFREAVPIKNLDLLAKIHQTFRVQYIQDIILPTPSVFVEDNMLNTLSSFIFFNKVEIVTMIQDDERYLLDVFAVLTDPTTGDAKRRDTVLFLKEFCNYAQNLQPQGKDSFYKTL
Described as above.

Assay [3] addresses T3, GST-Hs-EVH1 (human SMEK1^EVH1, aa 1-168) (human) (UniProt Q6IN85).
T3 sequence: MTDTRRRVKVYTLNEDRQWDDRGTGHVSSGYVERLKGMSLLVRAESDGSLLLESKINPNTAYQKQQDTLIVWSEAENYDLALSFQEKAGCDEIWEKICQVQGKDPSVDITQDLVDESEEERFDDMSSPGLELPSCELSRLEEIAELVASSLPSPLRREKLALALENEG
Described as above.

Assay [4] has as its target T4, GFP-Smk-1 (Drosophila melanogaster) (UniProt Q9VFS5).
T4 sequence: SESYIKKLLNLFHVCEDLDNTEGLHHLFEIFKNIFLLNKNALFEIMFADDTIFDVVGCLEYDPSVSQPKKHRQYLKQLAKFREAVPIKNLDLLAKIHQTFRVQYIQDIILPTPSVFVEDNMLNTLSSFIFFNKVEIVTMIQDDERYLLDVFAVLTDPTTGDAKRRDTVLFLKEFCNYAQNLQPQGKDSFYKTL
In words: co-IP; GFP-Smk-1 and Flag-tagged protein transiently co-expressed in D.Mel-2 cells; lysate in EB buffer; GFP-Trap magnetic agarose, 90 min at 4°C; immunoblot with anti-GFP and anti-FlagM2. A general note: In western blotting, separated proteins are transferred to a membrane and probed.

These are yes or no findings as the source states them, for the method shown. In cells and extracts the contact can be indirect. Some binding calls cover weakened binding; strength is not graded here. Sequences can lack the tags named with a protein.

As to Rfc4 (from UniProt P53034 1-331), the binding entry in assay [1] is recorded as “no binding”; in assay [2] it was “binds”.
Consider Psc (from UniProt P35820 1-1601), for which the binding entry in assay [1] and in assay [3] was “binds” in each case.

B1: Flag-Zw10 (protein, UniProt Q9W4X9 1-721)
chain: MEEEAPRFNVLEEAFNGNGNGCANVEATQSAILKVLTRVNRFQMRVRKHIEDNYTEFLPNNTSPDIFLEESGSLNREIHDMLENLGSEGLDALDEANVKMAGNGRQLREILLGLGVSEHVLRIDELFQCVEEAKATKDYLVLLDLVGRLRAFIYGDDSVDGDAQVATPEVRRIFKALECYETIKVKYHVQAYMLQQSLQERFDRLVQLQCKSFPTSRCVTLQVSRDQTQLQDIVQALFQEPYNPARLCEFLLDNCIEPVIMRPVMADYSEEADGGTYVRLSLSYATKEPSSAHVRPNYKQVLENLRLLLHTLAGINCSVSRDQHVFGIIGDHVKDKMLKLLVDECLIPAVPESTEEYQTSTLCEDVAQLEQLLVDSFIINPEQDRALGQFVEKYETYYRNRMYRRVLETAREIIQRDLQDMVLVAPNNHSAEVANDPFLFPRCMISKSAQDFVKLMDRILRQPTDKLGDQEADPIAGVISIMLHTYINEVPKVHRKLLESIPQQAVLFHNNCMFFTHWVAQHANKGIESLAALAKTLQATGQQHFRVQVDYQSSILMGIMQEFEFESTHTLGSGPLKLVRQCLRQLELLKNVWANVLPETVYNATFCELINTFVAELIRRVFTLRDISAQMACELSDLIDVVLQRAPTLFREPNEVVQVLSWLKLQQLKAMLNASLMEITELWGDGVGPLTASYKSDEIKHLIRALFQDTDWRAKAITQIV
In the case of B1, the binding result in assay [4] was “binds”.

B2: Flag-Zw10(^238AxxA^241) (protein, UniProt Q9W4X9 1-721)
chain: MEEEAPRFNVLEEAFNGNGNGCANVEATQSAILKVLTRVNRFQMRVRKHIEDNYTEFLPNNTSPDIFLEESGSLNREIHDMLENLGSEGLDALDEANVKMAGNGRQLREILLGLGVSEHVLRIDELFQCVEEAKATKDYLVLLDLVGRLRAFIYGDDSVDGDAQVATPEVRRIFKALECYETIKVKYHVQAYMLQQSLQERFDRLVQLQCKSFPTSRCVTLQVSRDQTQLQDIVQALAQEAYNPARLCEFLLDNCIEPVIMRPVMADYSEEADGGTYVRLSLSYATKEPSSAHVRPNYKQVLENLRLLLHTLAGINCSVSRDQHVFGIIGDHVKDKMLKLLVDECLIPAVPESTEEYQTSTLCEDVAQLEQLLVDSFIINPEQDRALGQFVEKYETYYRNRMYRRVLETAREIIQRDLQDMVLVAPNNHSAEVANDPFLFPRCMISKSAQDFVKLMDRILRQPTDKLGDQEADPIAGVISIMLHTYINEVPKVHRKLLESIPQQAVLFHNNCMFFTHWVAQHANKGIESLAALAKTLQATGQQHFRVQVDYQSSILMGIMQEFEFESTHTLGSGPLKLVRQCLRQLELLKNVWANVLPETVYNATFCELINTFVAELIRRVFTLRDISAQMACELSDLIDVVLQRAPTLFREPNEVVQVLSWLKLQQLKAMLNASLMEITELWGDGVGPLTASYKSDEIKHLIRALFQDTDWRAKAITQIV
On to B2, for which the binding result in assay [4] was “binds”.

B3: Flag-Zw10(^438AxxA^441) (protein, UniProt Q9W4X9 1-721)
chain: MEEEAPRFNVLEEAFNGNGNGCANVEATQSAILKVLTRVNRFQMRVRKHIEDNYTEFLPNNTSPDIFLEESGSLNREIHDMLENLGSEGLDALDEANVKMAGNGRQLREILLGLGVSEHVLRIDELFQCVEEAKATKDYLVLLDLVGRLRAFIYGDDSVDGDAQVATPEVRRIFKALECYETIKVKYHVQAYMLQQSLQERFDRLVQLQCKSFPTSRCVTLQVSRDQTQLQDIVQALFQEPYNPARLCEFLLDNCIEPVIMRPVMADYSEEADGGTYVRLSLSYATKEPSSAHVRPNYKQVLENLRLLLHTLAGINCSVSRDQHVFGIIGDHVKDKMLKLLVDECLIPAVPESTEEYQTSTLCEDVAQLEQLLVDSFIINPEQDRALGQFVEKYETYYRNRMYRRVLETAREIIQRDLQDMVLVAPNNHSAEVANDPALFARCMISKSAQDFVKLMDRILRQPTDKLGDQEADPIAGVISIMLHTYINEVPKVHRKLLESIPQQAVLFHNNCMFFTHWVAQHANKGIESLAALAKTLQATGQQHFRVQVDYQSSILMGIMQEFEFESTHTLGSGPLKLVRQCLRQLELLKNVWANVLPETVYNATFCELINTFVAELIRRVFTLRDISAQMACELSDLIDVVLQRAPTLFREPNEVVQVLSWLKLQQLKAMLNASLMEITELWGDGVGPLTASYKSDEIKHLIRALFQDTDWRAKAITQIV
For B3, in assay [4], the binding entry is “binds”.
